Data from patent US5945404A, “21-Substituted steroid compound” (priority 1993, dated 1999).
The name of at least one read-out is uncertain.

The compounds below were run on croton oil-induced ear edema (assay: Inhibitory Effects on Croton oil-induced Ear Lobe Edema). Conditions: Table 5; ointment 20 mg, mouse ear lobe.
Format: in vivo, male ddY mice
Experimental: Ointment to be tested was prepared usign white soft paraffin as the base and containing dexamethasone at 0.1% concentration.
Groups of 10 male ddY mice each weighing about 25 g were used. Ointment to be tested (20 mg) was rubbed in the right-side ear lobe, and, 30 min later, a drop of 4 % croton oil dissolved in either was applied to it. Thirty minute after that treatment, mice were sacrificed. Ear lobes on both sides were punched out in the size of 5-mm diameter, and weighed. Results were expressed by calculating the per cent of weight change of the right edema ear as compared with that of the untreated left ear, and compared with that of the control.

In order of falling “Percent of inhibition of ear edema” value:
1. CC(=O)N[C@H]1[C@H](OCC(=O)[C@@]2(O)[C@H](C)C[C@H]3[C@@H]4CCC5=CC(=O)C=C[C@]5(C)[C@@]4(F)[C@@H](O)C[C@@]32C)O[C@H](CO)[C@@H](O)[C@@H]1O [Compound 35β, β-N-acetylglucosaminyldexamethasone]  29.0 ± 3.0%
2. C[C@@H]1C[C@H]2[C@@H]3CCC4=CC(=O)C=C[C@]4(C)[C@@]3(F)[C@@H](O)C[C@]2(C)[C@@]1(O)C(=O)CO[C@@H]1O[C@H](C(=O)O)[C@H](O)[C@H](O)[C@H]1O [Compound 65β, β-galacturonyldexamethasone]  26.5 ± 3.2%
3. COC(=O)[C@H]1O[C@@H]2OC(C)(OCC(=O)[C@@]3(O)[C@H](C)C[C@H]4[C@@H]5CCC6=CC(=O)C=C[C@]6(C)[C@@]5(F)[C@@H](O)C[C@@]43C)O[C@@H]2[C@@H](OC(C)=O)[C@@H]1OC(C)=O (some centres unmarked) [Compound 54']  25.7 ± 4.1%
4. CC(=O)N[C@H]1[C@H](OCC(=O)[C@@]2(O)[C@H](C)C[C@H]3[C@@H]4CCC5=CC(=O)C=C[C@]5(C)[C@@]4(F)[C@@H](O)C[C@@]32C)O[C@H](CO)[C@H](O)[C@@H]1O [Compound 45β, N-acetylgalactosaminyldexamethasone]  24.6 ± 6.3%
5. Cc1ccc(C(=O)OC[C@H]2O[C@H](OCC(=O)[C@@]3(O)[C@H](C)C[C@H]4[C@@H]5CCC6=CC(=O)C=C[C@]6(C)[C@@]5(F)[C@@H](O)C[C@@]43C)[C@H](OC(=O)c3ccc(C)cc3)[C@@H](OC(=O)c3ccc(C)cc3)[C@@H]2OC(=O)c2ccc(C)cc2)cc1 [Compound 4α]  24.1 ± 4.9%
6. Cc1ccc(C(=O)OC[C@H]2O[C@@H](OCC(=O)[C@@]3(O)[C@H](C)C[C@H]4[C@@H]5CCC6=CC(=O)C=C[C@]6(C)[C@@]5(F)[C@@H](O)C[C@@]43C)[C@H](OC(=O)c3ccc(C)cc3)[C@@H](OC(=O)c3ccc(C)cc3)[C@@H]2OC(=O)c2ccc(C)cc2)cc1 [Compound 4β]  23.5 ± 4.1%
7. C[C@@H]1C[C@H]2[C@@H]3CCC4=CC(=O)C=C[C@]4(C)[C@@]3(F)[C@@H](O)C[C@]2(C)[C@@]1(O)C(=O)CO[C@@H]1O[C@H](C(=O)O)[C@@H](O)[C@H](O)[C@H]1O [Compound 55β, β-glucuronyldexamethasone]  21.6 ± 5.9%
8. COC(=O)[C@H]1O[C@@H]2OC(C)(OCC(=O)[C@@]3(O)[C@H](C)C[C@H]4[C@@H]5CCC6=CC(=O)C=C[C@]6(C)[C@@]5(F)[C@@H](O)C[C@@]43C)O[C@@H]2[C@@H](OC(C)=O)[C@H]1OC(C)=O (some centres unmarked) [Compound 64']  18.4 ± 4.5%
9. COC(=O)[C@H]1O[C@@H](OCC(=O)[C@@]2(O)[C@H](C)C[C@H]3[C@@H]4CCC5=CC(=O)C=C[C@]5(C)[C@@]4(F)[C@@H](O)C[C@@]32C)[C@H](OC(=O)c2ccc(C)cc2)[C@@H](OC(=O)c2ccc(C)cc2)[C@H]1OC(=O)c1ccc(C)cc1 [Compound 69β]  17.8 ± 3.8%
10. COC(=O)[C@H]1O[C@@H](OCC(=O)[C@@]2(O)[C@H](C)C[C@H]3[C@@H]4CCC5=CC(=O)C=C[C@]5(C)[C@@]4(F)[C@@H](O)C[C@@]32C)[C@H](OC(C)=O)[C@@H](OC(C)=O)[C@H]1OC(C)=O [Compound 64β]  17.7 ± 2.8%
11. COC(=O)[C@H]1O[C@@H](OCC(=O)[C@@]2(O)[C@H](C)C[C@H]3[C@@H]4CCC5=CC(=O)C=C[C@]5(C)[C@@]4(F)[C@@H](O)C[C@@]32C)[C@H](OC(=O)c2ccc(C)cc2)[C@@H](OC(=O)c2ccc(C)cc2)[C@@H]1OC(=O)c1ccc(C)cc1 [Compound 59β]  13.6 ± 4.0%
12. COC(=O)[C@H]1O[C@@H](OCC(=O)[C@@]2(O)[C@H](C)C[C@H]3[C@@H]4CCC5=CC(=O)C=C[C@]5(C)[C@@]4(F)[C@@H](O)C[C@@]32C)[C@H](OC(C)=O)[C@@H](OC(C)=O)[C@@H]1OC(C)=O [Compound 54β]  13.2 ± 5.1%
13. Cc1ccc(C(=O)OC[C@H]2O[C@@H](OCC(=O)[C@@]3(O)[C@H](C)C[C@H]4[C@@H]5CCC6=CC(=O)C=C[C@]6(C)[C@@]5(F)[C@@H](O)C[C@@]43C)[C@H](OC(=O)c3ccc(C)cc3)[C@@H](OC(=O)c3ccc(C)cc3)[C@H]2OC(=O)c2ccc(C)cc2)cc1 [Compound 14β]  11.9 ± 3.5%
14. CC(=O)N[C@H]1[C@H](OCC(=O)[C@@]2(O)[C@H](C)C[C@H]3[C@@H]4CCC5=CC(=O)C=C[C@]5(C)[C@@]4(F)[C@@H](O)C[C@@]32C)O[C@H](COC(C)=O)[C@H](OC(C)=O)[C@@H]1OC(C)=O [Compound 44β]  9.2 ± 4.5%
15. CC(=O)N[C@H]1[C@H](OCC(=O)[C@@]2(O)[C@H](C)C[C@H]3[C@@H]4CCC5=CC(=O)C=C[C@]5(C)[C@@]4(F)[C@@H](O)C[C@@]32C)O[C@H](COC(C)=O)[C@@H](OC(C)=O)[C@@H]1OC(C)=O [Compound 34β, N-acetylglucosaminyldexamethasone]  9.1 ± 5.0%
16. Cc1ccc(C(=O)OC[C@H]2O[C@H](OCC(=O)[C@@]3(O)[C@H](C)C[C@H]4[C@@H]5CCC6=CC(=O)C=C[C@]6(C)[C@@]5(F)[C@@H](O)C[C@@]43C)[C@H](OC(=O)c3ccc(C)cc3)[C@@H](OC(=O)c3ccc(C)cc3)[C@H]2OC(=O)c2ccc(C)cc2)cc1 [Compound 14α]  9.0 ± 4.9%
17. Cc1ccc(C(=O)OC[C@H]2O[C@H](OCC(=O)[C@@]3(O)[C@H](C)C[C@H]4[C@@H]5CCC6=CC(=O)C=C[C@]6(C)[C@@]5(F)[C@@H](O)C[C@@]43C)[C@@H](OC(=O)c3ccc(C)cc3)[C@@H](OC(=O)c3ccc(C)cc3)[C@@H]2OC(=O)c2ccc(C)cc2)cc1 [Compound 24α, mannosyldexamethasone]  6.8 ± 2.9%

Same assay, conditions: Table 6; ointment 20 mg, mouse ear lobe

In order of rising “Percent of inhibition of ear edema” value:
1. CC(=O)OC[C@H]1O[C@@H](OCC(=O)[C@@]2(O)[C@H](C)C[C@H]3[C@@H]4CCC5=CC(=O)C=C[C@]5(C)[C@@]4(F)[C@@H](O)C[C@@]32C)[C@H](OC(C)=O)[C@@H](OC(C)=O)[C@H]1OC(C)=O [Compound 115β, galactosyldexamethasone (acetyl derivative)]  23.3 ± 2.1%
2. CCCCC(=O)O[C@]1(C(=O)CO[C@@H]2O[C@H](COC(=O)c3cccc(C)c3)[C@@H](OC(=O)c3cccc(C)c3)[C@H](OC(=O)c3cccc(C)c3)[C@H]2OC(=O)c2cccc(C)c2)[C@@H](C)C[C@H]2[C@@H]3CCC4=CC(=O)C=C[C@]4(C)[C@@]3(F)[C@@H](O)C[C@@]21C [Compound 117β, glucosylbetamethasone valerate (m-toluoyl derivative)]  24.2 ± 6.3%
3. Cc1ccc(C(=O)OC[C@H]2O[C@@H](OCC(=O)[C@@]3(O)[C@@H](C)C[C@H]4[C@@H]5CCC6=CC(=O)C=C[C@]6(C)[C@@]5(F)[C@@H](O)C[C@@]43C)[C@H](OC(=O)c3ccc(C)cc3)[C@@H](OC(=O)c3ccc(C)cc3)[C@@H]2OC(=O)c2ccc(C)cc2)cc1 [Compound 91β, Glucosylbetamethasone (per Tol)]  32.9 ± 7.8%
4. Cc1ccccc1C(=O)OC[C@H]1O[C@@H](OCC(=O)[C@@]2(O)[C@@H](C)C[C@H]3[C@@H]4CCC5=CC(=O)C=C[C@]5(C)[C@@]4(F)[C@@H](O)C[C@@]32C)[C@H](OC(=O)c2ccccc2C)[C@@H](OC(=O)c2ccccc2C)[C@@H]1OC(=O)c1ccccc1C [Compound 94β, glucosylbetamethasone (o-toluoyl derivative)]  35.1 ± 4.1%
5. Cc1cccc(C(=O)OC[C@H]2O[C@@H](OCC(=O)[C@@]3(O)[C@@H](C)C[C@H]4[C@@H]5CCC6=CC(=O)C=C[C@]6(C)[C@@]5(F)[C@@H](O)C[C@@]43C)[C@H](OC(=O)c3cccc(C)c3)[C@@H](OC(=O)c3cccc(C)c3)[C@@H]2OC(=O)c2cccc(C)c2)c1 [Compound 97β, glucosylbetamethasone (m-toluoyl derivative)]  36.6 ± 5.1%
6. C[C@H]1C[C@H]2[C@@H]3CCC4=CC(=O)C=C[C@]4(C)[C@@]3(F)[C@@H](O)C[C@]2(C)[C@@]1(O)C(=O)CO[C@@H]1O[C@H](COC(=O)c2ccccc2)[C@@H](OC(=O)c2ccccc2)[C@H](OC(=O)c2ccccc2)[C@H]1OC(=O)c1ccccc1 [Compound 100β, glucosylbetamethasone (benzoyl derivative)]  40.5 ± 4.7%
7. Cc1ccc(C(=O)OC[C@H]2O[C@@H](OCC(=O)[C@@]3(O)[C@@H](C)C[C@H]4[C@@H]5C[C@H](F)C6=CC(=O)C=C[C@]6(C)[C@@]5(F)[C@@H](O)C[C@@]43C)[C@H](OC(=O)c3ccc(C)cc3)[C@@H](OC(=O)c3ccc(C)cc3)[C@@H]2OC(=O)c2ccc(C)cc2)cc1 [Compound 107β, glucosyldiflorasone (p-toluoyl derivative)]  41.4 ± 6.1%
8. Cc1ccc(C(=O)OC[C@H]2O[C@@H](OCC(=O)[C@@]3(O)CC[C@H]4[C@@H]5C[C@H](F)C6=CC(=O)C=C[C@]6(C)[C@@]5(F)[C@@H](O)C[C@@]43C)[C@H](OC(=O)c3ccc(C)cc3)[C@@H](OC(=O)c3ccc(C)cc3)[C@@H]2OC(=O)c2ccc(C)cc2)cc1 [Compound 105β, glucosyldiflupredonate (p-toluoyl derivative)]  42.0 ± 2.9%
9. CC(=O)OC[C@H]1O[C@@H](OCC(=O)[C@@]2(O)[C@H](C)C[C@H]3[C@@H]4CCC5=CC(=O)C=C[C@]5(C)[C@@]4(F)[C@@H](O)C[C@@]32C)[C@H](OC(C)=O)[C@@H](OC(C)=O)[C@@H]1OC(C)=O [Compound 114β, Glucosyldexamethasone (acetyl derivative)]  49.8 ± 9.7%
